The values that follow come from the supplement of paper PMC10441789.

The other results are listed elsewhere or left out. Antibody binding of pooled human sera (four to six donors per pool; dilution not stated) to peptides of the Trypanosoma cruzi antigen TSSA on microarrays. Quantile-normalised fluorescence in arbitrary units, mean of duplicate arrays; higher = more binding. No active / inactive call. The uninfected pools are read here as the healthy donors of the same country. The strongest signals lie near the top of the scale (about 60,000).

The first assay concerns pooled sera of uninfected people, Mexico. Briefly: antibody binding signal (normalised fluorescence) (arbitrary fluorescence units); higher = stronger serum antibody binding to peptide. The protocol: (§1)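 Microarray of 15-residue peptides over residues 30-55 of Trypanosoma cruzi TSSAII, each with 1 to 10 substitutions at naturally variable positions, probed with one serum pool per country.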
In turn, GTEKKAATGGAPSPS registered an antibody binding signal of 118.
The sequence TDNKAAAGEAPSPSG returned an antibody binding signal of 88.5.
In the case of GTEKKAATGGTPSPP, the antibody binding signal is 110.
On the same count and under the same terms, the figure for EKKAAAGETPSPSGA is 277; for PPSGKDKKTATGETP it is 87.3; for STPPSGTENKTAAGE it is 330.
STPPSGKDNKAATGG came in with an antibody binding signal of 102.
For KDNKTATGGTPSPSG, the antibody binding signal came out at 106.
In turn, SGKENKPAAGGAPSP displayed an antibody binding signal of 317.
For PPSGKDKKTATGGAP, the antibody binding signal was 84.
In turn, TPPSGKENKTAAGET showed an antibody binding signal of 278.
The sequence DKKPAAGETPSQSGA showed an antibody binding signal of 122.
For the sequence GTDNKAATGETPSQP, the antibody binding signal amounted to 157.
KKPAAGETPSQPGAS showed an antibody binding signal of 74.7.
For PPSGTDKKPAAGEAP, the antibody binding signal amounted to 4920.
KEKKPATGETPSQSG: the antibody binding signal was determined as 559.
Sequence ENKPAAGGAPSQPGA returned an antibody binding signal of 288.
Consider GKEKKAAAGEAPSPS, for which the antibody binding signal was determined as 92.7.
Turning to KENKPATGGAPSPPG, the antibody binding signal was 115.
On the same count and under the same terms, the figure for SGKDNKAAAGGTPSQ is 100; for TENKAAAGGTPSQPG it is 803; for GKDKKTATGGAPSQS it is 114.
Still for that read-out and setting: the figure for ENKAAAGGTPSPSGA is 159; for EKKTAAGGAPSQPGA it is 242; for SGTEKKAATGETPSP it is 264.
In the case of DKKPAAGGAPSPSGA, the antibody binding signal was found to be 132.
ENKAAAGGAPSPPGA: the antibody binding signal was determined as 162.
On the same count and under the same terms, with KDNKAAAGGTPSPSG the figure was 82.8; with PSGKENKAATGEAPS, 469; with TPPSGTENKPATGET, 2770.
In the case of KKPAAGGAPSQSGAS, the antibody binding signal is 113.
STPPSGKEKKAATGG had an antibody binding signal of 75.3.
In turn, GKDKKPATGEAPSQP showed an antibody binding signal of 104.
Same read-out and setting: the figure for STPPSGTDKKPATGG is 3560.
Sequence DKKAAAGGTPSQSGA returned an antibody binding signal of 217.
Sequence GKENKAATGGAPSPP gave an antibody binding signal of 149.
On the same count and under the same terms, the figure for PPSGTDNKPATGETP is 2000; for KDKKTATGETPSPPG it is 109.
With TDKKTATGGAPSQPG, the antibody binding signal worked out at 292.
With NKPAAGGTPSPSGAS, the antibody binding signal stood at 211.

For another assay, the system named is pooled sera of uninfected people, USA. The description is as above. The protocol:
as §1
In the case of GTEKKAATGGAPSPS, the antibody binding signal came out at 151.
On to TDNKAAAGEAPSPSG, for which the antibody binding signal is 103.
As to GTEKKAATGGTPSPP, the antibody binding signal turned out to be 173.
The same measure, in the same setting: the figure for EKKAAAGETPSPSGA is 1960; for PPSGKDKKTATGETP it is 129; for STPPSGTENKTAAGE it is 286.
STPPSGKDNKAATGG came in with an antibody binding signal of 155.
On to KDNKTATGGTPSPSG, for which the antibody binding signal worked out at 163.
Same read-out and setting: the figure for SGKENKPAAGGAPSP is 205.
For PPSGKDKKTATGGAP, the antibody binding signal worked out at 174.
On to TPPSGKENKTAAGET, for which the antibody binding signal is 230.
Same read-out and setting: the figure for DKKPAAGETPSQSGA is 105; for GTDNKAATGETPSQP it is 123.
Take KKPAAGETPSQPGAS: the antibody binding signal came to 418.
PPSGTDKKPAAGEAP registered an antibody binding signal of 396.
Sequence KEKKPATGETPSQSG displayed an antibody binding signal of 415.
ENKPAAGGAPSQPGA yielded an antibody binding signal of 367.
Consider GKEKKAAAGEAPSPS, for which the antibody binding signal came out at 98.5.
Regarding KENKPATGGAPSPPG, the antibody binding signal is 150.
The same measure, in the same setting: with SGKDNKAAAGGTPSQ the figure was 114; with TENKAAAGGTPSQPG, 148.
In the case of GKDKKTATGGAPSQS, the antibody binding signal was 116.
As to ENKAAAGGTPSPSGA, the antibody binding signal was 157.
Sequence EKKTAAGGAPSQPGA showed an antibody binding signal of 689.
SGTEKKAATGETPSP showed an antibody binding signal of 960.
With DKKPAAGGAPSPSGA, the antibody binding signal stood at 166.
Sequence ENKAAAGGAPSPPGA gave an antibody binding signal of 384.
Consider KDNKAAAGGTPSPSG, for which the antibody binding signal was 109.
PSGKENKAATGEAPS returned an antibody binding signal of 275.
Take TPPSGTENKPATGET: the antibody binding signal amounted to 3370.
Take KKPAAGGAPSQSGAS: the antibody binding signal was determined as 178.
STPPSGKEKKAATGG yielded an antibody binding signal of 132.
GKDKKPATGEAPSQP displayed an antibody binding signal of 124.
Take STPPSGTDKKPATGG: the antibody binding signal is 868.
As to DKKAAAGGTPSQSGA, the antibody binding signal was determined as 153.
Consider GKENKAATGGAPSPP, for which the antibody binding signal was 150.
PPSGTDNKPATGETP registered an antibody binding signal of 356.
For KDKKTATGETPSPPG, the antibody binding signal amounted to 489.
The sequence TDKKTATGGAPSQPG yielded an antibody binding signal of 172.
The same measure, in the same setting: the figure for NKPAAGGTPSPSGAS is 1380.
